Test results as given in PubChem BioAssay AID588579 (National Center for Advancing Translational Sciences (NCATS), 2011).
The campaign covered roughly 400,000 compounds. About 2,200 (0.55%) were called active. This list was built around the results that the source calls inconclusive (neither active nor inactive); the mix of calls is not that of the screen. Calls come from the whole dose curve; as a rule, active = well fitted inhibition curve with a large enough effect; inconclusive = small, poorly fitted or top-dose-only effect, or another doubt; inactive = no such curve, though single readings can be large or run the other way. Where the call is inconclusive, the potency comes from a doubtful curve fit.

What follows are molecules tested against DNA polymerase kappa (Homo sapiens) (UniProt Q9UBT6) (assay: qHTS for Inhibitors of Polymerase Kappa). Settings: purified Pol kappa, fluorescent DNA synthesis assay, 10 min; series mostly up to 107 µM.
Outline: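 Kinetic fluorescence readout at 0 and 10 min followed reaction start with substrate at 50 nM final. Beforehand, enzyme (10 nM Pol kappa) stood 15 min with compound at room temperature; buffer-only wells were negative controls.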
Potency is the fitted concentration of half-maximal effect; tags give direction and shape of the fitted curve.

UniProt Q9UBT6, sequence (Q9UBT6 whole entry, looked up): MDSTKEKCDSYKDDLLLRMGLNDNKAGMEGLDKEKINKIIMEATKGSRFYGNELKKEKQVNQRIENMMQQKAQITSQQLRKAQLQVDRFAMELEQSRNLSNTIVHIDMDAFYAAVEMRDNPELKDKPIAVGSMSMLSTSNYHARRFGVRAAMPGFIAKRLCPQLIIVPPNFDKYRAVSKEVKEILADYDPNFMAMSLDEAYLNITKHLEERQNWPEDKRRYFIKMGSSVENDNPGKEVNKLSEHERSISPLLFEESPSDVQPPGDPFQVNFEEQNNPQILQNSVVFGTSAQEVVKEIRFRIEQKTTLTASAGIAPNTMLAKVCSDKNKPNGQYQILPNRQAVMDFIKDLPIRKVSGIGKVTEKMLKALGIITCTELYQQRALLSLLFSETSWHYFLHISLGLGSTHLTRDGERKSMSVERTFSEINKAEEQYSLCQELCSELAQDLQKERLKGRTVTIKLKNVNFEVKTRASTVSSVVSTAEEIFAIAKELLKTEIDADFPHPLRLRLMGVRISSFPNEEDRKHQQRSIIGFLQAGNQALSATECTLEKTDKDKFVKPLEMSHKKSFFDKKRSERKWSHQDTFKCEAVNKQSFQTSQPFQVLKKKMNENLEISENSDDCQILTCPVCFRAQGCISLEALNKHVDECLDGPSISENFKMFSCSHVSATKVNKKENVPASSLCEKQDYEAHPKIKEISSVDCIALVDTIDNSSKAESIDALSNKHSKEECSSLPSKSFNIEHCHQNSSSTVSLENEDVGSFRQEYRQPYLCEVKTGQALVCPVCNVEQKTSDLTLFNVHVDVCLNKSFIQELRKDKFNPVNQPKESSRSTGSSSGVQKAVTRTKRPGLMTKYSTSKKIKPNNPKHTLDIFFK

SMILES | Potency
CC1(C)C(=O)Nc2ccccc2N1C(=O)CSc1ncccn1 | inconclusive: 89.1 µM [inhibitor, single point]
CC(C)c1onc(-c2c(Cl)cccc2Cl)c1COc1ccc(/C=C/c2cccc(C(=O)O)c2)c(Cl)c1 | active: 29.9 µM
CN1C(=O)Cc2cc(S(=O)(=O)CCC(=O)N3CCN(c4ccccc4F)CC3)ccc21 | inconclusive: 100 µM [inhibitor, partial curve, poor fit]
O=C1NC(=S)SC1=Cc1ccccc1Br | inactive
COC(=O)CCCC1=CC2=C(c3ccccc3)C(=O)C(C)(OC(=O)C3CCCC3)C(=O)C2=CN1C1CCCC1 (stereo unspecified) | inactive
O=C(O)c1ccc(CNCc2cccc(OCc3ccc(F)cc3)c2)cc1 | inconclusive: 89.1 µM [inhibitor, partial curve, poor fit]
CCOC(=O)c1c(-c2ccco2)csc1NC(=O)CSc1nnc(N)s1 | inconclusive: 89.1 µM [inhibitor, single point]
CCc1nnc(N/N=C/c2cc(Br)c(O)cc2O)n1N | inactive
CC1=C(C(=O)O)N2C(=O)C(NC(=O)c3ccccc3Cl)C2SC1 (stereo unspecified) | inactive
CCOc1ccccc1CNC(=O)c1cc(-c2ccc(OC)cc2)nc2ccc(C(C)C)cc12 | inactive
O=C(O)CCC(=O)N1CCc2cc(S(=O)(=O)N3CC=C(c4ccccc4)CC3)ccc21 | inconclusive: 79.4 µM [inhibitor, partial curve, poor fit]
COc1ccccc1NS(=O)(=O)c1ccc(O)c(C(=O)OCC(=O)N2CCc3ccccc32)c1 | inconclusive: 89.1 µM [inhibitor, single point]
CC(=O)N1CCc2c(sc3c2c(=O)n(-c2ccccc2C)c(=O)n3Cc2cccc(F)c2)C1 | inconclusive: 89.1 µM [inhibitor, single point]
Cc1ccc(-c2nc3cc(Cl)ccc3o2)cc1NC(=O)COc1ccccc1C | inconclusive: 100 µM [inhibitor, single point]
CN(C)C(=O)c1ccc(-c2nc(N(C)C)c3ccccc3n2)cc1 | inactive
COc1ccc(C(=O)Nc2ccccc2C(=O)NC(Cc2ccc(O)cc2)C(=O)NNC(=O)c2ccccc2Cl)cc1 (stereo unspecified) | inactive
COc1ccc(N2C(=O)C3CCCN3C2c2ccc(F)cc2)cc1Cl (stereo unspecified) | inconclusive: 89.1 µM [inhibitor, single point]
O=C(OC1Cc2c(O)cc(O)cc2OC1c1cc(O)c(O)c(O)c1-c1c(C2Oc3cc(O)cc(O)c3CC2OC(=O)c2cc(O)c(O)c(O)c2)cc(O)c(O)c1O)c1cc(O)c(O)c(O)c1 (stereo unspecified) | active: 0.501 µM
COc1cccc(NC(=O)CN(C)C(=O)c2cc3c(s2)CCC3)c1 | active: 31.6 µM
CCOC(=O)C(C)Oc1cccc2c(=O)n(CC(=O)NCCc3ccccc3)ccc12 (stereo unspecified) | inconclusive: 89.1 µM [inhibitor, single point]
CCCCn1c(=NC(=O)c2cc3ccccc3o2)c(C(=O)OCC)cc2c(=O)n3ccccc3nc21 | inactive
CCc1ccc(N=C2NC(=O)/C(=C/c3ccc(OCC(=O)O)cc3)S2)cc1 | inconclusive: 89.1 µM [inhibitor, single point]

SMILES | Potency
Cc1ccc(S(=O)(=O)N2CCC(=O)N(CCOC(=O)Nc3cc(C)cc(C)c3)CC2)cc1 | inconclusive: 44.7 µM [inhibitor, partial curve, poor fit]
CCN(CC)CCNC(=O)Cn1nc(C)c2c(C)n(-c3ccccc3)nc2c1=O | inactive
CCCc1cc(=O)oc2cc(OCC(=O)Nc3ccc(S(N)(=O)=O)cc3)ccc12 | active: 39.8 µM
COc1ccc(NC(=O)CCS(=O)(=O)c2ccc(Br)s2)cc1 | inconclusive: 89.1 µM [inhibitor, single point]
Cc1ccc(C)c(Cn2nnc3c(=O)[nH]c(C(=O)NCc4ccco4)nc32)c1 | active: 89.1 µM
O=C(NC1CCCCC1)c1cccnc1Sc1ccccc1 | inconclusive: 89.1 µM [inhibitor, single point]
O=c1cc(-c2ccccc2)[nH]c2[nH]n(-c3ccccc3)c(=O)c12 | inactive
CCOC(=O)N1CCN(C(=O)c2ccc3c(c2)NC(=O)/C(=C\c2ccc(OC)c(OC)c2)S3)CC1 | active: 25.1 µM
O=C(NCCN=C1NS(=O)(=O)c2ccccc21)c1ccc2nccnc2c1 | inconclusive: 100 µM [inhibitor, single point]
O=C(CCc1nc2sc3c(c2c(=O)[nH]1)CCCC3)N1CCN(c2ccccc2)CC1 | inconclusive: 89.1 µM [inhibitor, partial curve, poor fit]
Cc1sc(-n2c(C)cc(/C=C3\SC(=S)NC3=O)c2C)c(C#N)c1C | active: 79.4 µM
c1ccc(Nc2ncnc3ccc(-c4ccoc4)cc23)cc1 | inconclusive: 25.1 µM [inhibitor, partial curve]
Cc1nc(-n2[nH]c3c(c2=O)CCCC3)[nH]c(=O)c1Cc1ccccc1 | inconclusive: 89.1 µM [inhibitor, single point]
O=C(Nc1ccc(Cl)c(C(F)(F)F)c1)C1CCN(S(=O)(=O)c2cccc3nonc23)CC1 | inconclusive: 89.1 µM [inhibitor, single point]
COC(=O)c1ccc2c(c1)C(C)(C)C(/C=C/c1ccccc1O)=[N+]2C | active: 35.5 µM
CSc1cccc(NC(=O)CCNS(=O)(=O)c2ccc3[nH]c(=O)oc3c2)c1 | inconclusive: 100 µM [inhibitor, single point]
COc1ccc(CNC(=O)Cn2c(=O)cc(-c3ccccc3)c3c(C)nn(C)c32)cc1 | inconclusive: 89.1 µM [inhibitor, partial curve, poor fit]
O=C(CN1CCN(S(=O)(=O)c2cc(Cl)ccc2Cl)CC1)c1ccc(O)c(O)c1 | active: 28.2 µM
CCOC(=O)c1sc2ncn(CC(=O)Nc3cc(C)on3)c(=O)c2c1C | inconclusive: 79.4 µM [inhibitor, partial curve, poor fit]
NC(=O)c1c(NC(=O)CN2C(=O)NC(Cc3ccccc3)C2=O)sc2c1CCC2 (stereo unspecified) | inconclusive: 89.1 µM [inhibitor, partial curve, poor fit]
O=c1cc(O)cc(/C=C/c2ccc(O)c(O)c2)o1 | active: 0.752 µM
O=C(NCc1ccco1)c1sc(=S)n2c1[nH]c(=O)c1ccccc12 | inconclusive: 50.1 µM [inhibitor, partial curve, poor fit]

SMILES | Potency
Cc1cc(C)c2c(=O)nc(SCc3ccccc3C)n(C3CC3)c2n1 | inactive
Cc1ccc(-n2ncc3c(Nc4cccc(C)c4C)ncnc32)cc1 | inactive
CCCCCCCCCCCCC(C(=O)O)C(C)C(=O)O (stereo unspecified) | inconclusive: 31.6 µM [inhibitor, partial curve, poor fit]
COc1ccc(C(=O)OC2=C(C(=O)c3ccccc3)N(C)S(=O)(=O)c3ccccc32)cc1OC | inconclusive: 89.1 µM [inhibitor, single point]
CCCCCCCCCCCCN1[C@@H](CC(=O)O)c2cc(C(F)(F)F)ccc2S1(=O)=O | inconclusive: 79.4 µM [inhibitor, partial curve]
N#Cc1cccc(NC(=O)CSc2sc3c(O)cc(=O)[nH]c3c2C#N)c1 | inconclusive: 89.1 µM [inhibitor, partial curve, poor fit]
COc1ccc(C(=O)N2CCC3(CCCN(Cc4ccccc4)C3)CC2)cc1 | inactive
CC(=O)Nc1c(O)nc(SCC(=O)Nc2nnc(SCc3ccccc3)s2)[nH]c1=O | inconclusive: 100 µM [inhibitor, single point]
CCC(=Nc1ccc(N)cc1)C1=C(O)C(C(=O)OC)C(C)(C)CC1=O (stereo unspecified) | inconclusive: 89.1 µM [inhibitor, partial curve, poor fit]
O=C(N/N=C/c1cccc([N+](=O)[O-])c1)c1cc(-c2ccc3c(c2)OCO3)n[nH]1 | inconclusive: 100 µM [inhibitor, single point]
Cc1c(C(=O)NCc2ccccc2CN2CCCC2)oc2ccccc12 | inconclusive: 100 µM [inhibitor, single point]
Cc1ccc(Cl)cc1NC(=O)Cn1c(=O)n(CCC(=O)NCc2ccc3c(c2)OCO3)c(=O)c2sccc21 | inactive
Cc1sc2nc(SCC(=O)Nc3ccc(S(N)(=O)=O)cc3)[nH]c(=O)c2c1C | inactive
Cc1ccc(C)n1-c1ccc(C(=O)NN)cc1 | inconclusive: 56.2 µM [inhibitor, partial curve, poor fit]
O=C(N/N=C/c1ccncc1)c1cccc(S(=O)(=O)Nc2ccc(Cl)cc2)c1 | active: 28.2 µM
CC1(c2ccccc2)CC(C)(C)N(C(=O)c2cccc(Cl)c2)c2ccccc21 (stereo unspecified) | inconclusive: 89.1 µM [inhibitor, partial curve, poor fit]
CC(C)Nc1nc(-c2ccccc2)nc(-n2ccnc2)n1 | inactive
COc1ccccc1/C=C1\N=C(C(C)(C)C)OC1=O | inconclusive: 89.1 µM [inhibitor, single point]
O=C(Nc1ccc(-n2nncc2-c2ccco2)cc1)c1cc2ccccc2oc1=O | active: 5.62 µM
CCOc1nc2cccc(C(=O)OC(C)OC(=O)OC3CCCCC3)c2n1Cc1ccc(-c2ccccc2-c2nn[nH]n2)cc1 (stereo unspecified) | inconclusive: 28.2 µM [inhibitor, single point]
Cc1ccc2oc(=O)c(/C=C(\O)c3ccco3)nc2c1 | inactive
Cc1cc(=O)oc2c(CN3CCC(C)CC3)c(O)c(Cl)cc12 | inconclusive: 89.1 µM [inhibitor, single point]
